# The supplement of paper PMC8728848
# The other results are listed elsewhere or left out.
# B1: MIG/CXCL9 (Homo sapiens) (protein)
# chain: TPVVRKGRCSCISTNQGTIHLQSLKDLKQFAPSPSCEKIEIIIATLKNGVQTCLNPDSADVKELIKKTEKQVSQKKKQKNGKKHQKKKVLKVRKSQRSRQKKTT
# Legend:
# Assay in all cases: glycan array binding signal (z-score within array); higher = stronger binding
# Conditions in all cases: glycan notation: IUPAC condensed, linker removed
# [1] = target: Man(a1-3)[Man(a1-6)]Man(a1-6)[Man(a1-2)Man(a1-3)]Man(b1-4)GlcNAc(b1-4)GlcNAc
# Method in brief: (§1)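 Glycan array binding is given as a within-array Z-score, which can be read as non-binding when negative. The arrays, 3228 of them, came from the Consortium for Functional Glycomics database and were retained only where the protein sequence was available. Z-scores were averaged across arrays of the same protein sequence at different concentrations or buffers and across linkers.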
# [2] = target: Man(a1-3)[Man(a1-6)]Man(a1-6)[Man(a1-3)]Man(b1-4)GlcNAc(b1-4)GlcNAc
# Method in brief: as §1
# [3] = target: Man(a1-3)[Man(a1-6)]Man(b1-4)GlcNAc(b1-4)GlcNAc
# Method in brief: as §1
# Man(b1-4)GlcNAc = target: Man(b1-4)GlcNAc
# Method in brief: as §1
# Neu5Ac(a2-3)Gal = target: Neu5Ac(a2-3)Gal
# Method in brief: as §1
# [4] = target: Neu5Ac(a2-3)Gal(b1-3)GalNAc
# Method in brief: as §1
# [5] = target: Neu5Ac(a2-3)Gal(b1-3)GalNAc(b1-3)Gal(a1-4)Gal(b1-4)Glc
# Method in brief: as §1
# [6] = target: Neu5Ac(a2-3)Gal(b1-3)GalNAc(b1-3)Gal(b1-4)GlcNAc
# Method in brief: as §1
# [7] = target: Neu5Ac(a2-3)Gal(b1-3)GalNAc(b1-4)[Neu5Ac(a2-3)]Gal(b1-4)Glc
# Method in brief: as §1
# [8] = target: Neu5Ac(a2-3)Gal(b1-3)GalNAc6S
# Method in brief: as §1
# [9] = target: Neu5Ac(a2-3)Gal(b1-3)GlcNAc
# Method in brief: as §1
# [10] = target: Neu5Ac(a2-3)Gal(b1-3)GlcNAc6S
# Method in brief: as §1
# [11] = target: Neu5Ac(a2-3)Gal(b1-3)[Fuc(a1-4)]GlcNAc
# Method in brief: as §1
# [12] = target: Neu5Ac(a2-3)Gal(b1-3)[Fuc(a1-4)]GlcNAc(b1-3)Gal(b1-4)[Fuc(a1-3)]GlcNAc
# Method in brief: as §1
# [13] = target: Neu5Ac(a2-3)Gal(b1-3)[Neu5Ac(a2-3)Gal(b1-4)]GlcNAc
# Method in brief: as §1
# [14] = target: Neu5Ac(a2-3)Gal(b1-3)[Neu5Ac(a2-6)]GalNAc
# Method in brief: as §1
# Neu5Ac(a2-3)Gal(b1-4)Glc = target: Neu5Ac(a2-3)Gal(b1-4)Glc
# Method in brief: as §1
# [15] = target: Neu5Ac(a2-3)Gal(b1-4)GlcNAc
# Method in brief: as §1
# [16] = target: Neu5Ac(a2-3)Gal(b1-4)GlcNAc(b1-2)Man(a1-3)[Neu5Ac(a2-3)Gal(b1-4)GlcNAc(b1-2)Man(a1-6)]Man(b1-4)GlcNAc(b1-4)GlcNAc
# Method in brief: as §1
# [17] = target: Neu5Ac(a2-3)Gal(b1-4)GlcNAc(b1-3)Gal(b1-4)GlcNAc
# Method in brief: as §1
# [18] = target: Neu5Ac(a2-3)Gal(b1-4)GlcNAc(b1-3)Gal(b1-4)GlcNAc(b1-3)Gal(b1-4)GlcNAc
# Method in brief: as §1
# [19] = target: Neu5Ac(a2-3)Gal(b1-4)GlcNAc(b1-3)Gal(b1-4)[Fuc(a1-3)]GlcNAc
# Method in brief: as §1
# [20] = target: Neu5Ac(a2-3)Gal(b1-4)GlcNAc6S
# Method in brief: as §1
# [21] = target: Neu5Ac(a2-3)Gal(b1-4)[Fuc(a1-3)]GlcNAc
# Method in brief: as §1
# [22] = target: Neu5Ac(a2-3)Gal(b1-4)[Fuc(a1-3)]GlcNAc(b1-3)Gal
# Method in brief: as §1
# [23] = target: Neu5Ac(a2-3)Gal(b1-4)[Fuc(a1-3)]GlcNAc(b1-3)Gal(b1-4)GlcNAc
# Method in brief: as §1
# [24] = target: Neu5Ac(a2-3)Gal(b1-4)[Fuc(a1-3)]GlcNAc(b1-3)Gal(b1-4)[Fuc(a1-3)]GlcNAc(b1-3)Gal(b1-4)[Fuc(a1-3)]GlcNAc
# Method in brief: as §1
# [25] = target: Neu5Ac(a2-3)Gal(b1-4)[Fuc(a1-3)]GlcNAc6S
# Method in brief: as §1
# [26] = target: Neu5Ac(a2-3)Gal6S(b1-4)GlcNAc
# Method in brief: as §1
# [27] = target: Neu5Ac(a2-3)Gal6S(b1-4)[Fuc(a1-3)]GlcNAc
# Method in brief: as §1
# Neu5Ac(a2-3)GalNAc = target: Neu5Ac(a2-3)GalNAc
# Method in brief: as §1
# [28] = target: Neu5Ac(a2-3)GalNAc(b1-4)GlcNAc
# Method in brief: as §1
# [29] = target: Neu5Ac(a2-3)[GalNAc(b1-4)]Gal(b1-4)Glc
# Method in brief: as §1
# [30] = target: Neu5Ac(a2-3)[GalNAc(b1-4)]Gal(b1-4)GlcNAc
# Method in brief: as §1
# [31] = target: Neu5Ac(a2-3)[Neu5Ac(a2-6)]GalNAc
# Method in brief: as §1
# Neu5Ac(a2-6)Gal = target: Neu5Ac(a2-6)Gal
# Method in brief: as §1
# Neu5Ac(a2-6)Gal(b1-4)Glc = target: Neu5Ac(a2-6)Gal(b1-4)Glc
# Method in brief: as §1
# [32] = target: Neu5Ac(a2-6)Gal(b1-4)GlcNAc
# Method in brief: as §1
# [33] = target: Neu5Ac(a2-6)Gal(b1-4)GlcNAc(b1-3)Gal(b1-4)GlcNAc
# Method in brief: as §1
# [34] = target: Neu5Ac(a2-6)Gal(b1-4)GlcNAc(b1-3)Gal(b1-4)[Fuc(a1-3)]GlcNAc(b1-3)Gal(b1-4)[Fuc(a1-3)]GlcNAc
# Method in brief: as §1
# [35] = target: Neu5Ac(a2-6)Gal(b1-4)GlcNAc6S
# Method in brief: as §1
# Neu5Ac(a2-6)GalNAc = target: Neu5Ac(a2-6)GalNAc
# Method in brief: as §1
# [36] = target: Neu5Ac(a2-6)GalNAc(b1-4)GlcNAc
# Method in brief: as §1
# Neu5Ac(a2-8)Neu5Ac = target: Neu5Ac(a2-8)Neu5Ac
# Method in brief: as §1
# [37] = target: Neu5Ac(a2-8)Neu5Ac(a2-3)Gal(b1-4)Glc
# Method in brief: as §1
binder,measurement,setting,value
B1,glycan array binding signal (z-score),[1],-0.336
same,glycan array binding signal (z-score),[2],-0.439
same,glycan array binding signal (z-score),[3],-0.361
same,glycan array binding signal (z-score),Man(b1-4)GlcNAc,0.098
same,glycan array binding signal (z-score),Neu5Ac(a2-3)Gal,-0.037
same,glycan array binding signal (z-score),[4],-0.282
same,glycan array binding signal (z-score),[5],-0.256
same,glycan array binding signal (z-score),[6],-0.37
same,glycan array binding signal (z-score),[7],-0.243
same,glycan array binding signal (z-score),[8],0.602
same,glycan array binding signal (z-score),[9],-0.037
same,glycan array binding signal (z-score),[10],0.125
same,glycan array binding signal (z-score),[11],-0.391
same,glycan array binding signal (z-score),[12],0.05
same,glycan array binding signal (z-score),[13],-0.303
same,glycan array binding signal (z-score),[14],-0.3
same,glycan array binding signal (z-score),Neu5Ac(a2-3)Gal(b1-4)Glc,0.217
same,glycan array binding signal (z-score),[15],-0.152
same,glycan array binding signal (z-score),[16],0.04
same,glycan array binding signal (z-score),[17],-0.141
same,glycan array binding signal (z-score),[18],-0.264
same,glycan array binding signal (z-score),[19],-0.042
same,glycan array binding signal (z-score),[20],0.32
same,glycan array binding signal (z-score),[21],-0.196
same,glycan array binding signal (z-score),[22],-0.37
same,glycan array binding signal (z-score),[23],-0.11
same,glycan array binding signal (z-score),[24],-0.34
same,glycan array binding signal (z-score),[25],0.515
same,glycan array binding signal (z-score),[26],-0.121
same,glycan array binding signal (z-score),[27],-0.015
same,glycan array binding signal (z-score),Neu5Ac(a2-3)GalNAc,-0.254
same,glycan array binding signal (z-score),[28],-0.293
same,glycan array binding signal (z-score),[29],-0.337
same,glycan array binding signal (z-score),[30],-0.015
same,glycan array binding signal (z-score),[31],0.082
same,glycan array binding signal (z-score),Neu5Ac(a2-6)Gal,-0.181
same,glycan array binding signal (z-score),Neu5Ac(a2-6)Gal(b1-4)Glc,-0.237
same,glycan array binding signal (z-score),[32],-0.194
same,glycan array binding signal (z-score),[33],-0.254
same,glycan array binding signal (z-score),[34],-0.183
same,glycan array binding signal (z-score),[35],0.527
same,glycan array binding signal (z-score),Neu5Ac(a2-6)GalNAc,-0.219
same,glycan array binding signal (z-score),[36],-0.161
same,glycan array binding signal (z-score),Neu5Ac(a2-8)Neu5Ac,-0.309
same,glycan array binding signal (z-score),[37],-0.233
